Experimental data taken from PubChem BioAssay AID1479 (National Center for Advancing Translational Sciences (NCATS), 2009).
About 820 (0.29%) of roughly 280,000 compounds were called active. Inconclusive means that the source gave no clear call. Such entries were picked first, then a sample of the others. Calls come from the whole dose curve; as a rule, active = well fitted curve in either direction with a large enough effect; inconclusive = small, poorly fitted or top-dose-only effect; inactive = flat fitted curve, though single readings scatter. No potency is given beside an inconclusive call; the fits are too rough.

experiment: Total Fluorescence Counterscreen for Inhibitors of the Interaction of Thyroid Hormone Receptor and Steroid Receptor Coregulator 2; details: TRb/SRC2 Texas Red total fluorescence interference; series mostly up to 106 µM
In short: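 Human TRb ligand-binding domain at 0.6 uM with 20 nM Texas Red SRC2 peptide in Tris buffer containing 1 uM T3 and 5% DMSO, incubated with compound 5 h at ambient temperature. Total fluorescence (555/632 nm) calculated as parallel + 2 × perpendicular.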
Potency is the fitted concentration of half-maximal effect; tags give direction and shape of the fitted curve or compound fluorescence and quenching.

Row | Structure (SMILES) | Potency
1 | COc1ccccc1CN1C(=O)c2cccc3cccc(c23)C1=O | inactive
2 | Cc1ccc(CN2C(=O)c3ccccc3CC2(C)C(=O)NC2CCCCC2)cc1 (configuration not stated) | inconclusive [quencher, full curve]
3 | COc1ccc(OC)c(CNC(=O)c2cc(S(=O)(=O)N3CCC(C)CC3)cn2C)c1 | inconclusive [quencher, partial curve]
4 | CCN(CC)S(=O)(=O)c1ccc(C(=O)NCc2ccc3c(c2)cc(C)n3C)cc1 | active: 44.7 µM [fluorescent]
5 | Clc1ccc(Nc2nc(-c3ccccc3)c3ccccc3n2)c(Cl)c1 | inconclusive [falling, full curve, poor fit]
6 | CCOc1ccc(NC(=O)CCc2nc3cccnc3n2Cc2ccc(OC)cc2)cc1 | inconclusive [quencher, full curve]
7 | CCc1ccc(NC(=O)CC2C(=O)NCCN2C(=O)c2ccccc2OC)cc1 (configuration not stated) | active: 8.91 µM [quencher]
8 | CC(=O)OC[C@H]1O[C@@H](n2ncc(=O)[nH]c2=O)[C@H](OC(C)=O)[C@@H]1OC(C)=O | inconclusive [falling, partial curve, poor fit]
9 | CCOC(=O)c1ccc(NC(=O)CC2Nc3cccc4cccc(c34)NC2=O)cc1 (configuration not stated) | inconclusive [falling, full curve, poor fit]
10 | CCc1ccc(NS(=O)(=O)c2ccc3[nH]cc(C(=O)N4CCc5ccccc54)c(=O)c3c2)cc1 | inconclusive [falling, full curve, poor fit]
11 | COc1ccc(S(=O)(=O)/N=C2/NC(=O)/C(=C/c3ccco3)S2)cc1 | inconclusive [quencher, partial curve]
12 | CCN(CC)CCN(C(=O)c1ccco1)c1nc2c(C)c(C)ccc2s1 | inconclusive [quencher, full curve]
13 | COc1cc(OC)cc(C(=O)Nc2ccc3nc4c(c(Nc5ccc(OC)c(OC)c5)c3c2)CCCC4)c1 | inactive
14 | O=C(CN1CCN(c2ccccc2F)CC1)c1c[nH]c2ccc(F)cc12 | inactive
15 | CN(C)CC(O)Cn1c2ccc(Br)cc2c2cc(Br)ccc21 (configuration not stated) | inactive
16 | O=C1NC(=S)S/C1=C\C=C\c1ccc([N+](=O)[O-])o1 | inconclusive [quencher, full curve]
17 | Cn1nnnc1SCCCNCc1cccc(OCc2ccccc2F)c1 | inconclusive [falling, partial curve, poor fit]
18 | O=C(Nc1nnc(SCc2ccc(F)cc2)s1)C1CC(=O)N(c2ccc3c(c2)OCCO3)C1 (configuration not stated) | inconclusive [quencher, full curve]
19 | CCc1ccc(S(=O)(=O)c2cn(C)c3cc(N4CCOCC4)c(F)cc3c2=O)cc1 | inconclusive [quencher, full curve]
20 | O=c1c(OC2OC(CO)C(O)C(O)C2O)c(-c2ccc(O)c(O)c2)oc2cc(O)cc(O)c12 (configuration not stated) | inactive
21 | CCCCn1nnnc1SCC(=O)Nc1ccc(F)cc1 | inactive
22 | CC(C)OCC1CO1 (configuration not stated) | inactive
23 | O=C(O)/C=C/c1ccc(O)c(O)c1 | inconclusive [quencher, full curve]

Row | Structure (SMILES) | Potency
24 | Cc1ccc(C)c(N2C(=O)N(Cc3ccccc3C)c3ccccc3S2(=O)=O)c1 | inconclusive [falling, partial curve, poor fit]
25 | Cc1ccccc1OCC(=O)Nc1ccc2oc(-c3ccc(F)cc3)nc2c1 | inconclusive [falling, partial curve, poor fit]
26 | CC(C)Oc1ccc(CNC(=O)CN2C(=O)CCn3nc(-c4cn(C)c5ccccc45)cc32)cc1 | inconclusive [falling, partial curve, poor fit]
27 | CCc1ccc(NC(=O)Nc2cn(C)c(=O)c3ccccc23)cc1 | inconclusive [falling, full curve, poor fit]
28 | COc1ccc2c(c1)Cc1sc(NC(=O)c3ccccc3C)nc1-2 | active: 0.0028 µM [quencher]
29 | COc1ccc(NC(=O)Cn2cnc3ccc(S(=O)(=O)N4CCC(C)CC4)cc3c2=O)c(OC)c1 | inconclusive [quencher, full curve]
30 | Cc1ccc2c(c1)C(=O)OC(C(=O)Nc1ccc(C(=O)O)cc1)C2 (configuration not stated) | inconclusive [falling, full curve, poor fit]
31 | CCCc1oc2ccc(NS(=O)(=O)c3ccc(OCC)cc3)cc2c1C(=O)OCC | inactive
32 | CCN(C(=O)CSc1nnc(-c2cc3occc3n2C)n1-c1ccccc1C)c1ccccc1 | active: 79.4 µM [quencher]
33 | COc1ccc(S(=O)(=O)Nc2ccc3c(c2)sc(=O)n3C)cc1Cl | inconclusive [quencher, full curve]
34 | CCOc1ccc(S(=O)(=O)Nc2cccc(-c3ccc(N4CCCC4)nn3)c2)cc1 | active: 20 µM [quencher]
35 | N#CC1=C(N)SC(N)=C(C#N)C1c1ccc([N+](=O)[O-])cc1 | inactive
36 | Cc1ccc(C)c(NC(=O)Cn2ncc3c([nH]c4ccccc43)c2=O)c1 | inconclusive [quencher, full curve]
37 | Cc1ccc(N(C)C(=O)CC(C)S(=O)(=O)c2ccc3c(c2)NC(=O)CO3)cc1 (configuration not stated) | active: 12.6 µM [quencher]
38 | CCc1ccc(NC(=O)Cn2ccn(-c3ccc(OC)cc3)c(=O)c2=O)cc1 | inconclusive [falling, full curve, poor fit]
39 | COc1ccc(CCNC(=O)c2csc3c2CCCCC3)c(OC)c1 | active: 20 µM [quencher]
40 | CC[n+]1c(/C=C/C=C/N(C(C)=O)c2ccccc2)sc2cc(OC)ccc21 | inconclusive [fluorescent, partial curve]
41 | O=C(CSc1nc2c([nH]c3ccccc32)c(=O)n1-c1ccccc1)N1CCCc2ccccc21 | inconclusive [quencher, partial curve]
42 | CCCCNC(=O)NS(=O)(=O)c1ccc(CO)cc1 | inactive
43 | CC(C)=CC[C@@H](O)C1=CC(=O)c2c(O)ccc(O)c2C1=O | active: 28.2 µM [quencher]
44 | COc1cc(CN(C(=O)COc2ccc(Cl)cc2)c2ccccn2)cc(OC)c1OC | inconclusive [falling, full curve, poor fit]
45 | O=C(Nc1cccc(Cl)c1)OCC#CCCl | active: 7.94 µM [fluorescent]
46 | O=C(Cc1cccs1)NCCc1csc(-c2ccccc2)n1 | inactive

Row | Structure (SMILES) | Potency
47 | COc1ccc(C(=O)n2nc(-c3ccc(Cl)cc3)nc2NCc2ccco2)cc1 | inconclusive [falling, full curve, poor fit]
48 | COCCNC(=O)NC12CC3CC(CC(C3)C1)C2 | inactive
49 | O=C1C=C(c2ccccc2)C[C@H](c2cccs2)[C@H]1n1nnc([N+](=O)[O-])n1 | inconclusive [falling, partial curve, poor fit]
50 | COc1ccc(-c2cn3c(n2)sc2cc(C(=O)Nc4c(C)cccc4C)ccc23)cc1 | inconclusive [falling, partial curve, poor fit]
51 | Cc1oc(-c2ccccc2F)nc1CS(=O)(=O)CC(=O)N1CCN(c2ccc(Cl)cc2)CC1 | inconclusive [quencher, partial curve]
52 | CCOc1ccc(Nc2c3ccccc3nc3ccccc23)cc1 | inactive
53 | CCC(C)NC(=O)COC(=O)c1ccccc1OCC(=O)Nc1ccc(Br)cc1 (configuration not stated) | inconclusive [falling, partial curve, poor fit]
54 | O=C(Nc1nc2c(s1)CCCC2)c1cc(-c2ccccc2)nc2ccccc12 | inconclusive [quencher, full curve]
55 | O=C(NCc1ccccc1)C(=O)NCC(c1cccnc1)N1CCN(c2ccccc2)CC1 (configuration not stated) | inconclusive [falling, full curve, poor fit]
56 | CC1CN(C(=O)N2CCC(C(=O)NC3CCCCCC3)CC2)c2ccccc2O1 (configuration not stated) | inconclusive [falling, partial curve, poor fit]
57 | CCOC(=O)C1=NN(C(=O)c2ccc(C)cc2)C(O)(c2ccc(Cl)cc2)C1 (configuration not stated) | inactive
58 | CC1=C(C(=O)NCc2ccc(Cl)cc2)C2(CCCCCC2)OC1=O | inconclusive [quencher, full curve]
59 | COn1cnnc1-c1ccccc1 | inactive
60 | CCN(Cc1cccc(S(=O)(=O)O)c1)c1ccc(C(=C2C=CC(=[N+](CC)Cc3cccc(S(=O)(=O)[O-])c3)C=C2)c2ccccc2)cc1 | active: 89.1 µM [quencher]
61 | Cc1cc(C)c[n+](C2=C([O-])c3ccccc3C(=O)/C2=N\S(=O)(=O)c2cccs2)c1 | inconclusive
62 | COc1ccc2c(CNC3CCCCCC3)c(C(=O)O)n(Cc3ccccc3F)c2c1 | inactive
63 | NC(=O)Cc1ccc(Nc2nnc(-c3ccccc3)c3ccccc23)cc1 | inconclusive [falling, full curve, poor fit]
64 | O=C(CSc1nccc(=O)[nH]1)N1N=C2/C(=C/c3ccco3)CCCC2C1c1ccco1 (configuration not stated) | inactive
65 | O=S(=O)(NCc1ccc(Cl)cc1)c1ccc2[nH]c3c(c2c1)CCCC3 | active: 25.1 µM [quencher]
66 | CC1=C/C(=C\C=C(C#N)C#N)N(C)c2ccccc21 | inconclusive [rising, full curve, poor fit]
67 | CCOC(=O)c1cccc(NS(=O)(=O)c2ccc3[nH]c4c(c3c2)CCCC4)c1 | inconclusive [falling, full curve, poor fit]
